# Reference: the supplement of paper PMC8728848
# Some of the results follow.
# B1: Pa IMPa (Pseudomonas aeruginosa), Q9I5W4 (protein)
# chain: MSLSTTAFPSLQGENMSRSPIPRHRALLAGFCLAGALSAQAATQEEILDAALVSGDSSQLTDSHLVALRLQQQVERIRQTRTQLLDGLYQNLSQAYDPGAASMWVLPANPDNTLPFLIGDKGRVLASLSLEAGGRGLAYGTNVLTQLSGTNAAHAPLLKRAVQWLVNGDPGAATAKDFKVSVVGVDKTAALNGLKSAGLQPADAACNALTDASCASTSKLLVLGNGASAASLSATVRARLQAGLPILFVHTNGWNQSSTGQQILAGLGLQEGPYGGNYWDKDRVPSSRTRTRSVELGGAYGQDPALVQQIVDGSWRTDYDWSKCTSYVGRTTCDDVPGLSDFSKRVDVLKGALDAYNQKAQNLFALPGTTSLRLWLLWADAVRQNIRYPMDKAADTARFQETFVADAIVGYVREAGAAQKELGSYAGQRQQSMPVSGSEETLTLTLPSAQGFTAIGRMAAPGKRLSIRIEDAGQASLAVGLNTQRIGSTRLWNTRQYDRPRFLKSPDIKLQANQSVALVSPYGGLLQLVYSGATPGQTVTVKVTGAASQPFLDIQPGEDSSQAIADFIQALDADKADWLEIRSGSVEVHAKVEKVRGSIDKDYGGDVQRFIRELNEVFIDDAYTLAGFAIPNQAKTPAIQQECAARGWDCDSETLHKLPGTQHINVDQYAQCGGGCSGNPYDQTWGLNPRGWGESHELGHNLQVNRLKVYGGRSGEISNQIFPLHKDWRVLREFGQNLDDTRVNYRNAYNLIVAGRAEADPLAGVYKRLWEDPGTYALNGERMAFYTQWVHYWADLKNDPLQGWDIWTLLYLHQRQVDKSDWDANKAALGYGTYAQRPGNSGDASSTDGNDNLLLGLSWLTQRDQRPTFALWGIRTSAAAQAQVAAYGFAEQPAFFYANNRTNEYSTVKLLDMSQGSPAWPFP
# Key:
# Test in all cases: glycan array binding signal (z-score within array); higher = stronger binding
# Conditions in all cases: glycan notation: IUPAC condensed, linker removed
# [1] = biological target: GlcNAc(b1-3)Gal(b1-4)GlcNAc(b1-3)Gal(b1-4)GlcNAc(b1-3)GalNAc
# Method in brief: (§1)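 Columns mapping to the same glycan were averaged after glycan names were converted to IUPAC-condensed notation. The data come from 3228 arrays in the Consortium for Functional Glycomics database, limited to those with an available protein sequence. Binding is reported as a within-array Z-score averaged across arrays of one protein sequence and across linkers.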
# [2] = biological target: GlcNAc(b1-3)Gal(b1-4)GlcNAc(b1-3)GalNAc
# Method in brief: as §1
# [3] = biological target: GlcNAc(b1-3)Gal(b1-4)GlcNAc(b1-3)[GlcNAc(b1-3)Gal(b1-4)GlcNAc(b1-3)]GalNAc
# Method in brief: as §1
# [4] = biological target: GlcNAc(b1-3)Gal(b1-4)GlcNAc(b1-6)[Gal(b1-3)]GalNAc
# Method in brief: as §1
# [5] = biological target: GlcNAc(b1-3)Gal(b1-4)GlcNAc(b1-6)[GlcNAc(b1-3)Gal(b1-3)]GalNAc
# Method in brief: as §1
# [6] = biological target: GlcNAc(b1-3)Gal(b1-4)GlcNAc(b1-6)[GlcNAc(b1-3)]Gal(b1-4)GlcNAc
# Method in brief: as §1
# [7] = biological target: GlcNAc(b1-3)GalNAc
# Method in brief: as §1
# [8] = biological target: GlcNAc(b1-3)Man
# Method in brief: as §1
# [9] = biological target: GlcNAc(b1-3)[GlcNAc(b1-4)][GlcNAc(b1-6)]GlcNAc
# Method in brief: as §1
# [10] = biological target: GlcNAc(b1-3)[GlcNAc(b1-6)]Gal(b1-4)GlcNAc
# Method in brief: as §1
# [11] = biological target: GlcNAc(b1-3)[GlcNAc(b1-6)]GalNAc
# Method in brief: as §1
# [12] = biological target: GlcNAc(b1-4)Gal(b1-4)GlcNAc
# Method in brief: as §1
# [13] = biological target: GlcNAc(b1-4)GlcNAc
# Method in brief: as §1
# [14] = biological target: GlcNAc(b1-4)GlcNAc(b1-4)GlcNAc
# Method in brief: as §1
# [15] = biological target: GlcNAc(b1-4)GlcNAc(b1-4)GlcNAc(b1-4)GlcNAc(b1-4)GlcNAc
# Method in brief: as §1
# [16] = biological target: GlcNAc(b1-4)GlcNAc(b1-4)GlcNAc(b1-4)GlcNAc(b1-4)GlcNAc(b1-4)GlcNAc
# Method in brief: as §1
# [17] = biological target: GlcNAc(b1-4)[GlcNAc(b1-6)]GalNAc
# Method in brief: as §1
# [18] = biological target: GlcNAc(b1-6)Gal(b1-4)GlcNAc
# Method in brief: as §1
# [19] = biological target: GlcNAc(b1-6)GalNAc
# Method in brief: as §1
# [20] = biological target: GlcNAc6S(b1-3)Gal(b1-4)GlcNAc
# Method in brief: as §1
# [21] = biological target: Kdn(a2-3)Gal(b1-3)GalNAc
# Method in brief: as §1
# [22] = biological target: Kdn(a2-3)Gal(b1-3)GlcNAc
# Method in brief: as §1
# [23] = biological target: Kdn(a2-3)Gal(b1-4)Glc
# Method in brief: as §1
# [24] = biological target: Kdn(a2-3)Gal(b1-4)GlcNAc
# Method in brief: as §1
# [25] = biological target: Kdn(a2-3)Gal(b1-4)[Fuc(a1-3)]GlcNAc
# Method in brief: as §1
# [26] = biological target: Kdn(a2-6)Gal(b1-4)GlcNAc
# Method in brief: as §1
# [27] = biological target: Man(a1-2)Man(a1-2)Man(a1-3)Man
# Method in brief: as §1
# [28] = biological target: Man(a1-2)Man(a1-2)Man(a1-6)[Man(a1-3)]Man
# Method in brief: as §1
# [29] = biological target: Man(a1-2)Man(a1-3)Man
# Method in brief: as §1
# [30] = biological target: Man(a1-2)Man(a1-3)[Man(a1-2)Man(a1-6)]Man
# Method in brief: as §1
binder,measurement,setting,value
B1,glycan array binding signal (z-score),[1],-0.44
same,glycan array binding signal (z-score),[2],0.057
same,glycan array binding signal (z-score),[3],17.5
same,glycan array binding signal (z-score),[4],-0.146
same,glycan array binding signal (z-score),[5],0.366
same,glycan array binding signal (z-score),[6],-0.386
same,glycan array binding signal (z-score),[7],-0.21
same,glycan array binding signal (z-score),[8],-0.076
same,glycan array binding signal (z-score),[9],-0.444
same,glycan array binding signal (z-score),[10],0.874
same,glycan array binding signal (z-score),[11],-0.365
same,glycan array binding signal (z-score),[12],-0.196
same,glycan array binding signal (z-score),[13],0.044
same,glycan array binding signal (z-score),[14],-0.238
same,glycan array binding signal (z-score),[15],-0.309
same,glycan array binding signal (z-score),[16],-0.284
same,glycan array binding signal (z-score),[17],-0.256
same,glycan array binding signal (z-score),[18],-0.185
same,glycan array binding signal (z-score),[19],-0.516
same,glycan array binding signal (z-score),[20],0.718
same,glycan array binding signal (z-score),[21],0.647
same,glycan array binding signal (z-score),[22],-0.49
same,glycan array binding signal (z-score),[23],-0.129
same,glycan array binding signal (z-score),[24],-0.467
same,glycan array binding signal (z-score),[25],-0.249
same,glycan array binding signal (z-score),[26],-0.243
same,glycan array binding signal (z-score),[27],-0.474
same,glycan array binding signal (z-score),[28],-0.142
same,glycan array binding signal (z-score),[29],-0.432
same,glycan array binding signal (z-score),[30],-0.128
